Out of some 310,000 compounds screened, about 14,000 (4.5%) showed an effect of 50% or more. Effects have a minus sign here. The list shows a part of the results.
Each compound was assayed against human ether-à-go-go-related gene (hERG) potassium channel (human, UniProt Q12809) (assay: primary screen, population patch clamp on CHO cells stably expressing hERG).
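Note: peak tail current of the secondary pulse compared with the same well before compound.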

Sequence of human ether-à-go-go-related gene (hERG) potassium channel (Q12809 whole entry, looked up): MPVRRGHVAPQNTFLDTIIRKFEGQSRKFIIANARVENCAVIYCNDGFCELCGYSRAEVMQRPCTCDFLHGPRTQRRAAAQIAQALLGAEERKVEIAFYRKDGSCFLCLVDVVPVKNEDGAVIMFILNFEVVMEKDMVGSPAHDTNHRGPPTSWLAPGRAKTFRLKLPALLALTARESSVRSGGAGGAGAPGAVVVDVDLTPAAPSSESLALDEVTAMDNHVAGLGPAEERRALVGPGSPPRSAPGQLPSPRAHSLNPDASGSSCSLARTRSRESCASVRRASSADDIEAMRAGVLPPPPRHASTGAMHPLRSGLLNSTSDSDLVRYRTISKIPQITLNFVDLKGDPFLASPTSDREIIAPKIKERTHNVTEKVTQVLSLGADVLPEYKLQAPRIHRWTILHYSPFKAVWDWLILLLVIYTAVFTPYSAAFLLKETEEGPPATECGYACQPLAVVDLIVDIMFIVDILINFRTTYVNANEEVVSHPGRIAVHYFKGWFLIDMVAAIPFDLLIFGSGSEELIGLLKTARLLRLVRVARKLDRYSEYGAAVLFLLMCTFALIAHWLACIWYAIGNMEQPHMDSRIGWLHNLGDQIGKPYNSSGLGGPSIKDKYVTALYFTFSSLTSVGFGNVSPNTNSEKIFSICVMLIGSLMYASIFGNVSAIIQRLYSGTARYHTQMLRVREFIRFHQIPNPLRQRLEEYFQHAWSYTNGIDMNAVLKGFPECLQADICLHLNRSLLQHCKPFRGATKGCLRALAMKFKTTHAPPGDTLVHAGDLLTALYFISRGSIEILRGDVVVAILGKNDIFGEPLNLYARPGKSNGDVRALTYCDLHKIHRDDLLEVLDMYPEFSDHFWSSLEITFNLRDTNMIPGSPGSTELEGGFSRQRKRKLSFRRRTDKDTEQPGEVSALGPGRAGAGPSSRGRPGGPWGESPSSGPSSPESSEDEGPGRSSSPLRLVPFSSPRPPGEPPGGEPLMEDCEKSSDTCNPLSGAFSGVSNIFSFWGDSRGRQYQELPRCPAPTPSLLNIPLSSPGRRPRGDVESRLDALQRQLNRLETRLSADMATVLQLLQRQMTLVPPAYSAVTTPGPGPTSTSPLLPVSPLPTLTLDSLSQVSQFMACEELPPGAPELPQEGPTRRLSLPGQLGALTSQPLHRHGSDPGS

| Structure (SMILES) | hERG current change (%, negative = inhibition) at 10uM |
| --- | --- |
| CC(=O)Nc1nc(SCc2ccc(Cl)cc2Cl)n[nH]1 | 16.4% |
| O=C(Nc1ccc(CN2CCOCC2)cc1)c1ccc(Cl)cc1Cl | -19% |
| Cc1ccc(C(=O)C(OC(=O)c2c(C)cc(=O)oc2C)c2ccccc2)cc1 (stereo not shown) | 30.4% |
| CC1=C(C#N)C(NC(=O)c2cccc(Cl)c2)(C(F)(F)F)C(=O)N1 (stereo not shown) | -3.79% |
| CCC(C)(C)n1nnnc1C(c1cccnc1)N1CCCc2ccccc21 (stereo not shown) | -19.6% |
| COC(=O)c1cn(C(=O)c2ccc(Br)o2)c2ccccc12 | 4.27% |
| COc1ccc(NC(=O)c2sc3nc(N4CCCC4)c4c(c3c2N)CC(C)(C)OC4)c(OC)c1 | 19.2% |
| N#Cc1ncc(-c2ccc3c(c2)OCCOCCOCCOCCO3)nc1C#N | -69% |
| COc1cc(Cl)c(C)cc1NC(=O)CSc1nnc(-c2ccccn2)n1Cc1ccco1 | -29.5% |
| CCOc1ccc(NC(=O)c2cc3c(C)nc4ccccc4c3o2)cc1 | 9.38% |
| Cc1ccc(S(=O)(=O)N2CCOCC2)cc1NC(=O)CSc1nnc2cc(C)c3ccccc3n12 | -61.8% |
| Cc1ccc[n+](CC(=O)Nc2ccc(Cl)c([N+](=O)[O-])c2)c1.[Cl-] | 7.66% |
| COc1ccc(-c2onc(C)c2-c2ccccc2)c(O)c1 | 10.9% |
| CC(C)(C)OC(=O)N1CCC(NC(=O)c2nc[nH]c2C(=O)N2CCc3ccccc3C2)CC1 | -22.9% |
| O=C(NNC(=O)C1CCCCC1)c1ccco1 | 10.6% |
| Cc1ccc(N2C(=O)C(Cc3ccccc3)NC2=S)cc1 (stereo not shown) | -6.4% |
| Cc1c(NC(=O)COC(=O)c2ccccc2Cl)c(=O)n(-c2ccccc2)n1C | -16.8% |
| CC(C#N)On1c(SC(C)C#N)nc2ccccc2c1=O (stereo not shown) | -19.6% |
| N=C1/C(=C\c2ccc(Br)o2)C(=O)N=C2SC(CC(=O)N3CCOCC3)=NN12 | 20.8% |
| CC1C/C(=N\NC(=O)c2ccc([N+](=O)[O-])cc2)CC(C)(C)C1 (stereo not shown) | -7.35% |
| COc1ccc(OC)c(S(=O)(=O)NCC(c2ccco2)N2CCc3ccccc32)c1 (stereo not shown) | -18% |
| CCC(CC)C(=O)NCCc1cc2ccc(C)cc2[nH]c1=O | 13.2% |

| Structure (SMILES) | hERG current change (%, negative = inhibition) at 10uM |
| --- | --- |
| COc1ccc(C(=O)N2CCOC2CNC(=O)C(=O)NCCc2ccccc2OC)cc1 (stereo not shown) | 1.61% |
| COc1c2ccoc2cc2oc(C)cc(=O)c12 | 5.06% |
| O=C(Cn1cc(/C=N/NC(=O)c2cccc(C(F)(F)F)c2)c2ccccc21)Nc1ccc(F)cc1 | -0.106% |
| Cc1cccc2c(=O)c(-c3ccc4c(c3)OCO4)c(NC(=O)c3ccco3)oc12 | 1.12% |
| O=C1CC(c2ccccc2)CC(=O)N1c1ccccc1 | -16.4% |
| CC1CN(c2ccnc3cc(Cl)ccc23)CC(C)O1 (stereo not shown) | -39.7% |
| CCCc1cc(=O)oc2cc(C)cc(OCC(=O)NC(Cc3c[nH]c4ccc(O)cc34)C(=O)O)c12 (stereo not shown) | 13.9% |
| CC(C)(CO)CNC(=O)CCc1nnc(C2(c3ccc(Cl)cc3)CCC2)o1 | 6.43% |
| O=C(Nc1nccs1)c1ccc2c(c1)C(=O)N(Cc1cccnc1)C2=O | -4.17% |
| Cn1c(=O)n(C)c2cc(NS(=O)(=O)c3ccccc3[N+](=O)[O-])ccc21 | 8.19% |
| COC(=O)C1=C(c2c(C)noc2C)C[C@@H]2CC[C@H]1N2C(=O)NCCNC(C)=O | 22.2% |
| CCCn1c(C2CCCN2c2nc(-c3ccc(C)cc3)cs2)nc2cc(Cl)c(N3CCCCC3)cc21 (stereo not shown) | 18.8% |
| Cc1nn(CCCC(=O)O)c(C)c1[N+](=O)[O-] | 12.3% |
| Cn1c(Cc2ccccc2)nnc1SCC(=O)N1CCCCC1 | 9.84% |
| O=C(NCC1CCCO1)c1ccc2c(c1)N(Cc1ccccc1)CCS2 (stereo not shown) | -14.6% |
| Cc1nc(CCNC(=O)CC2C(=O)NCCN2Cc2ccccc2)nc2c1CCC2 (stereo not shown) | 6.51% |
| NC(=O)CSc1nc2c(sc3ccccc32)c(=O)n1CCCN1CCOCC1 | -52.8% |
| Cc1ccccc1NC(=O)NC1(C(=O)N2CCN(C)CC2)CCCCC1 | 18.4% |
| Cc1cccc(N2CCN(C(=O)C(Cc3ccccc3)n3cccc3)CC2)c1C (stereo not shown) | -0.223% |
| O=C(CCCCCCN1C(=O)c2ccccc2C1=O)NC1CCCCC1 | 19.2% |
| O=C1Nc2ccccc2C1(O)Cc1ccccn1 (stereo not shown) | 12.2% |
| O=C(Nc1cccc(F)c1)N1CCCCCC1 | 10.7% |

| Structure (SMILES) | hERG current change (%, negative = inhibition) at 10uM |
| --- | --- |
| Br.c1ccc(C2CNCc3c2ccc2ccccc32)cc1 (stereo not shown) | -31.6% |
| Cc1ccccc1NC(=O)c1cccc(NC(=O)c2ccccc2C(=O)O)c1 | 12.7% |
| COC(=O)CSC1=C(C#N)C(c2ccc(Cl)cc2)C(C(=O)OC)C(=O)N1 (stereo not shown) | 0.571% |
| O=C(Nc1ccc(Oc2ccccc2)nc1)C1CCCCN1Cc1ccco1 (stereo not shown) | -18.8% |
| CCN(CC)C(=O)Cn1nc(-c2ccncc2)nc1SCC(=O)Nc1ccc(OC)cc1 | 12.1% |
| CC(NC(=O)c1ccc2c(c1)OCCO2)C(=O)O (stereo not shown) | -13.3% |
| Cl.Clc1cccc(Nc2nc(N3CCOCC3)nc(N3CCOCC3)n2)c1 | 16.9% |
| N#C/C(=C\c1cn(Cc2ccc(C#N)cc2)c2ccccc12)C(=O)NCc1cccs1 | 16.2% |
| COc1ccc(-c2cn(Cc3ccc(C(=O)NCc4ccc(C)cc4)cc3)c(C(C)N)n2)cc1 (stereo not shown) | -2.48% |
| COc1cccc(C(=O)c2cc3ccc(O)cc3oc2=O)c1 | -17.9% |
| COc1cccc(/C=C/c2[nH]c(=O)[nH]c(=O)c2[N+](=O)[O-])c1O | 17.8% |
| Cc1cc2ccccc2nc1SCC(=O)N1CCCC1 | 0.96% |
| COc1ccc(/C=N/N2CCN(c3ccccc3OC)CC2)cc1OC | -19.7% |
| Cc1cc(C)c(NC(=O)C2CC(=O)N(C(C)C)C2)c(C)c1 (stereo not shown) | 8.97% |
| CCCCN(C(=O)c1cnc2n(c1=O)CCS2)c1ccccc1 | 1.25% |
| CCN(CC)CCn1c2c(c(SCC(=O)Nc3ccccc3Cl)nc1=O)CCCC2 | -55.6% |
| COC(=O)C(NC(=O)CCC(=O)N[C@@H](C(=O)OC)c1ccccc1)c1ccccc1 (stereo partly shown) | 9.88% |
| Cc1ccc2c(CC(=O)N3CCN(S(=O)(=O)c4cccs4)CC3)coc2c1 | -24.8% |
| O=C(Nc1ccc(F)cc1)N1CCOCC1 | 9.84% |
| CC(Cl)C(=O)NNC(=O)CNS(=O)(=O)c1ccccc1 (stereo not shown) | -0.478% |
| O=C1[C@H]2[C@H](C=CC[C@H]2C(=O)N2CCN(c3ccccc3)CC2)CCN1Cc1ccccc1 | -2.04% |
| CCN(C(=O)COC(=O)c1ccc(OC)c(S(=O)(=O)N(C)Cc2ccccc2)c1)C1CCS(=O)(=O)C1 (stereo not shown) | -30.9% |

| Structure (SMILES) | hERG current change (%, negative = inhibition) at 10uM |
| --- | --- |
| CCOc1ccccc1NC(=O)CCNS(=O)(=O)c1ccc(NC(C)=O)cc1 | 1.61% |
| Cc1nnc(SCC(=O)Nc2nccs2)n1C(C)C | 5.56% |
| Cc1ccsc1/C=N/NC(=O)Cc1ccc([N+](=O)[O-])cc1 | 4.99% |
| COCCN=c1scc(-c2cc(OC)ccc2OC)n1/N=C/c1c[nH]c2ccccc12 | 1.31% |
| CCOP(=O)(OCC)c1nc(-c2cccc3ccccc23)oc1NCCc1ccc(OC)cc1 | 6.73% |
| COC(=O)CN1C(=O)[C@@H]2[C@H](C1=O)[C@@H]1CC(C(=O)OC)=C[C@@H](C(=O)OC)[C@@H]3C1=C(C(=O)[C@]3(C)NC(=O)c1ccccc1)[C@@H]2C | 13.1% |
| CN(C)S(=O)(=O)c1ccc(Cl)c(NC(=O)COC(=O)/C=C/c2ccc3ccccc3n2)c1 | 1.53% |
| CCN1C(=O)/C(=C2/Sc3ccc(OC)cc3N2C)SC1=Nc1ccc(OC)cc1 | 14.3% |
| COCCn1c(N2CCN(c3ccc(OC)cc3)CC2)nc2c1c(=O)[nH]c(=O)n2C | -25.6% |
| C/C(=N\Nc1ccc([N+](=O)[O-])cc1)c1ccc(O)cc1 | -1.55% |
| CSc1nsc(SC)c1C(=O)NC(=O)Nc1cccnc1 | 6.89% |
| O=C(Nc1ccc(C(=O)N2CCCCC2)cc1)C1=CSCCO1 | 14.3% |
| O=C(C1=C[C@@H](C2CCCCC2)C[C@@H](OCc2ccc(CO)cc2)O1)N1CCOCC1 | -23.9% |
| CCN(CC)S(=O)(=O)c1ccc(Cl)c(C(=O)NCc2ccco2)c1 | -15.9% |
| CC(=O)c1cccc(CN2CCN(Cc3ccc(F)cc3)C(CCO)C2)c1 (stereo not shown) | -32.9% |
| CCCNC(=O)c1onc(CSc2nc3ccccc3[nH]2)c1C(=O)NCCC | -35.7% |
| Cc1cccc(N2C(=O)CC(N3CCN(c4cccc(C(F)(F)F)c4)CC3)C2=O)c1 (stereo not shown) | 6.15% |
| Cc1nnc(SCCn2c(N3CCCCC3)nc3c2c(=O)n(C)c(=O)n3C)s1 | 10.3% |
| CC(C)Cc1cc(C(=O)Nc2sc3c(c2C#N)CCCC3)no1 | -14.8% |

Source: PMC4336329 (PLoS ONE, 2015)
